In PubChem BioAssay AID488969 (Vanderbilt High Throughput Screening Facility, 2010) one finds z-score data, which are given here for 111 molecules.

In all, about 110,000 compounds were measured (“z-score”: median about -0.1, highest 2% from about 2 on). This is one part of the list. The source made the active and inactive calls.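 How the source made its calls: active means z-score in the third read window above 3 or below -3; inactive means the rest.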

This experiment has as its target Metabotropic glutamate receptor 8 (Rattus norvegicus) (UniProt P70579). Description: mGluR8 Gi/Go-coupled signaling modulation – cell-based, rat, thallium flux, HTS, primary screen (AID 488969). The note with it: HEK293 rat mGluR8, GIRK (G protein-gated inwardly rectifying potassium channel) thallium flux, FluoZin2; at 10 µM; stronger effect = higher value; submaximal glutamate (EC20) added with thallium.
UniProt P70579, sequence (P70579 whole entry, looked up): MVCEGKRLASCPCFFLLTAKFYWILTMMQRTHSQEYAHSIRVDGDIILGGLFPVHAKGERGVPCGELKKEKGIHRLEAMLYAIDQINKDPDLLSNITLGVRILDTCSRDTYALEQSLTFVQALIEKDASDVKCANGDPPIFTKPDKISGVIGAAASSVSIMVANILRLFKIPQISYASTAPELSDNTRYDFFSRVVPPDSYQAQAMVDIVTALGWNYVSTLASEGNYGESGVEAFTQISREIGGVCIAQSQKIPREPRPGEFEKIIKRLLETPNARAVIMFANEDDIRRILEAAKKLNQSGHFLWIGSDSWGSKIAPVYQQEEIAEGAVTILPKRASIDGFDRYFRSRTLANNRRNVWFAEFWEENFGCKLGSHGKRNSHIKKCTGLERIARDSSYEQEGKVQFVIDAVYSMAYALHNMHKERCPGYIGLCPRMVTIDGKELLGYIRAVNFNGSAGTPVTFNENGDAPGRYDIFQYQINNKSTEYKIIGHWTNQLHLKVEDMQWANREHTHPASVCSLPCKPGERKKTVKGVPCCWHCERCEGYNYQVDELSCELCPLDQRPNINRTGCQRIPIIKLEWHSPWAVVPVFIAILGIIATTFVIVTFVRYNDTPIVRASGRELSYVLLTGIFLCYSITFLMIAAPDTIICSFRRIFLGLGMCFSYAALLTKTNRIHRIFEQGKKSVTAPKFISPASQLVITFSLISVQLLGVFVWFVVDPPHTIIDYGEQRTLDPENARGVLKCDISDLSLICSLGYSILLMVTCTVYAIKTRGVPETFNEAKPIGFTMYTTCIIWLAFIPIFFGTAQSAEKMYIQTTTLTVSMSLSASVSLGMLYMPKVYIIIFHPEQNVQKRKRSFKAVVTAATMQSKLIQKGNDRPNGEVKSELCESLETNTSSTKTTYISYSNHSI
The molecule `CCCCn1c(=O)c(CCC(=O)OCC(=O)Nc2ccc(C)c(Cl)c2)nc2ccccc21` returned a z-score of -0.0154. In turn, `COc1ccccc1C1=Nn2c(nnc2C2CCCCC2)SC1` came in with a z-score of -1.07. With `CCCCCCCCCn1cc(C(C)=O)c(=O)[nH]c1=O`, the z-score was -0.428. The value for `COCCCNC(=O)c1cc2c(=O)n(C)c3ccccc3c2n1C` was -0.127; that for `CCN(CC)c1ccc2cc(C(=O)NNC(=O)c3ccc(S(=O)(=O)N4CCCCC4)cc3)c(=O)oc2c1` was -2.06. The value for `COc1cc(/C=C/C(=O)O)cc(S(=O)(=O)N(C)CCO)c1OC` was -0.279; that for `C=CCSc1nc2c(c(=O)[nH]c(=O)n2C)n1CC` was -0.0665; that for `COc1cc2c(cc1NC(=O)C(c1ccccc1)c1ccccc1)CCCC2` was -0.42.

As for `CCN(CC)CCCNC(=O)C(C)n1nc(C)c2sc3ccccc3c2c1=O` (stereo unspecified), the z-score is 0.158. The value for `O=C(COC(=O)c1ccc(S(=O)(=O)N2CCc3ccccc3C2)cc1)NC(=O)NCc1ccco1` was 0.0161. `O=C(c1cccs1)c1coc2ccc(O)cc12`: the z-score stood at 0.513. The value for `O=C(COc1ccc(C(=O)c2ccccc2)cc1)NC1CCCCCC1` was 0.0351; that for `CCOC(=O)c1ccc(NC(=S)NNC(=O)C2(C)CC2(Cl)Cl)cc1` (stereo unspecified) was -0.291; that for `Cn1cnnc1SCC(=O)NN(c1ccccc1)c1ccccc1` was -0.0793. `CCN1C(=O)CC(N2CCC(C(=O)OC)CC2)C1=O` (stereo unspecified) showed a z-score of 0.16. On to `CNS(=O)(=O)c1cc(C(=O)NCc2ccco2)ccc1Cl`, for which the z-score worked out at 0.119.

For `O=C(Cc1cccs1)Nc1cccnc1`, the z-score was active: 3.36. The value for `CC1CCN(CC(O)COCCOc2ccc(Br)cc2)CC1` (stereo unspecified) was 0.0792; that for `CCOCC(=O)Nc1nnc(COc2ccc(Cl)cc2)s1` was 0.0363; that for `COC(=O)c1ccccc1OCCCOc1ccc(C=O)cc1OC` was -0.36.

`O=[N+]([O-])c1ccc(-c2cnc(SC(c3ccccc3)c3ccccc3)[nH]2)cc1` registered a z-score of -0.274. With `O=C(Nc1nnc(-c2ccc(F)cc2)s1)C1CCN(S(=O)(=O)c2ccc(Cl)cc2)CC1` the figure was -0.14; with `COc1ccc(N=C2C(=Nc3ccc(OC)cc3)N(c3ccc(OC)cc3)C(=S)N2C(=O)c2ccc(OC)cc2)cc1`, -0.409. The value for `COc1ccccc1NC(=O)CN1CCC(n2nnc3cc(F)ccc32)CC1` was -0.581. With `O=C(CCS(=O)(=O)c1cccs1)N1CCN(c2ccc(F)cc2)CC1` the figure was 0.0362; with `CC(=O)C1=C(C)NC(SCC(=O)c2ccc(Cl)cc2)=C(C#N)C1CC(C)C` (stereo unspecified), -0.467. `Cc1ccc([N+](=O)[O-])cc1N/C=C1\CCc2ccccc2C1=O`: the z-score stood at 0.17. `COC(=O)c1ccc(NC2(C#N)C(=O)Nc3ccccc32)cc1` (stereo unspecified) displayed a z-score of -0.744. With `C/C(=N/NC(=O)C1CCCCC1)c1ccc([N+](=O)[O-])cc1` the figure was -0.537. The value for `c1ccc(NCc2cccnc2)cc1` was -0.0884; that for `NNC(=O)COc1ncn(-c2ccccc2)n1` was 0.0482.

Turning to `CCn1c(CCNC(=O)c2ccc(Cl)cc2Cl)n[nH]c1=S`, the z-score is -0.193. With `O=C(CSCc1ccc(Br)cc1)N1CCOCC1` the figure was 0.939; with `COc1cccc(/C(C#N)=C/c2c(-c3ccc(Cl)cc3)nc3c(C)cccn23)c1`, 0.373. Take `O=C(c1cc2c(ccc3ccccc32)oc1=O)N1CCCC1`: the z-score was -0.158.

As to `CCn1c(Cc2ccccc2)nnc1SCC(=O)Nc1cc(C)on1`, the z-score amounted to 0.0158. With `N#Cc1cc(Oc2ccc(Cl)cc2)c(N2CCOCC2)cc1C#N` the figure was -0.388; with `Cc1cccc(NC(=O)Cn2c(=O)oc3ccccc32)c1`, 0.936; with `O=C(NC1CCCC1)c1cc(-c2cccs2)on1`, -0.243.

`NC(=O)CSc1nnc(-c2ccc(S(=O)(=O)N3CCCCC3)cc2)n1-c1ccccc1` displayed a z-score of -0.00995. With `COc1ccc(C2C(C#N)=C(N)Nc3nc4ccccc4n32)cc1` (stereo unspecified) the figure was 0.0826; with `COC(=O)Oc1cncc(C(=O)O)c1`, -0.0704; with `Cc1ccc(NC(=S)c2ccc(N(C)C)cc2)cc1`, -0.129.

On to `Cc1ccccc1C(=O)/C=C1/c2ccccc2CC(C)(C)N1C`, for which the z-score is -0.398. The value for `Cc1c(Cl)c([N+](=O)[O-])nn1CC(=O)NCc1cccs1` was -0.28. With `NC(=O)COC(=O)CN1C(=O)C2CCCCC2C1=O` (stereo unspecified) the figure was -0.18; with `Cc1noc(/C=C/c2ccco2)c1S(=O)(=O)N1CCC(C(=O)N2c3ccccc3CC2C)CC1` (stereo unspecified), -0.615. In turn, `CCOc1ccc(C(=O)NCC(=O)OCC(=O)c2ccc3c(c2)-c2ccccc2C3)cc1` gave a z-score of -0.0949. The value for `CCOC(=O)c1sc2ccccc2c1OC(=O)c1ccccc1` was 0.13.

Regarding `COC(=O)CC1C(=O)NCCN1C(=O)CSc1nnc(Nc2ccc(OC)cc2)s1` (stereo unspecified), the z-score stood at 0.184. The value for `O=C(CSc1nc(-c2ccco2)cc(C(F)(F)F)n1)NC1CCCC1` was -0.137. The value for `O=C(NNC1=NCCC1)c1cccc(S(=O)(=O)N2CCOCC2)c1` was -0.144. The value for `CN1CCN(CC(=O)N(C)c2nc(-c3ccccc3)cs2)CC1` was 1.12; that for `CCOC(=O)c1sc(=S)n(-c2cccc(C(F)(F)F)c2)c1SC` was -0.0921. `Cc1nn(-c2ccccc2)c2c1C(=O)NC(=O)C(C)(C)C2` had a z-score of 0.011. The value for `O=C(NC(=S)Nc1ccc(Cl)cn1)C(c1ccccc1)c1ccccc1` was 0.284. On to `O=C(Cc1ccccc1)NC1CCN(S(=O)(=O)c2ccc(C(=O)O)cc2)CC1`, for which the z-score was -0.248. `COc1cc(CN2CCC(C(=O)N3CCCC(C)C3)CC2)cc(OC)c1O` (stereo unspecified) displayed a z-score of -0.299. The value for `CC1CC(C)CN(c2ccc(C(=O)OCC(=O)NC3CCCc4ccccc43)cc2[N+](=O)[O-])C1` (stereo unspecified) was 0.539. The value for `O=C1c2ccccc2NC(c2ccccc2)N1/N=C/c1ccccc1` (stereo unspecified) was -0.228. The value for `O=C(CN1CCCCCCC1)N/N=C/c1ccc(F)cc1F` was -0.63; that for `Cc1cc(C(=O)Nc2ccccn2)cs1` was -0.104. The molecule `CC(C)(C)NC(=O)C12CCC(C)(c3nc4ccccc4nc31)C2(C)C` (stereo unspecified) came in with a z-score of -0.114. With `Cc1ccc(C(=O)OCC(=O)NCc2cccs2)cc1` the figure was 0.656. The value for `CCCOc1ccc(C(=O)C(CN2CCOCC2)c2ccccc2)cc1` (stereo unspecified) was -0.565.

In the case of `O=C1CSC(c2cn(-c3ccccc3)nc2-c2cc3ccccc3o2)N1Cc1ccccc1` (stereo unspecified), the z-score is -0.53. Turning to `COc1ccccc1N(C(=O)c1ccncc1)c1nc(-c2ccc([N+](=O)[O-])cc2)cs1`, the z-score is -0.551. With `CCOC(=O)N1CCN(C(=O)C2CCC(CNS(=O)(=O)c3ccc(Cl)cc3)CC2)CC1` (stereo unspecified) the figure was -0.454. With `Cc1ccc(NC(=S)N(CCCN2CCOCC2)Cc2ccco2)cc1Cl` the figure was -0.365; with `COC(=O)c1ccc(Sc2nnnn2-c2ccccc2)c([N+](=O)[O-])c1`, -0.27; with `O=C1CN(C(=O)CSc2nc3cc(Cl)ccc3c(=O)n2Cc2ccccc2)c2ccccc2N1`, active: 7.11.

On to `O=S(=O)(Nc1ccc2c(c1)OCCO2)c1ccc(F)cc1`, for which the z-score was -0.102. `N#C/C(=C/c1ccc(CNC(=O)C(=O)Nc2cc(Cl)cc(Cl)c2)o1)C(=O)NCc1cccnc1` came in with a z-score of -0.181. The value for `O=C(CN1C(=O)C2C3C=CC(C3)C2C1=O)Nc1cccc2c1CCCC2` (stereo unspecified) was -0.222; that for `C=CCSc1nc2c(c(=O)n(C)c(=O)n2C)n1CC` was 0.292.

Turning to `O=C(Nc1ccccc1N1CCN(c2ccccc2)CC1)C12CC3CC(CC(C3)C1)C2`, the z-score is 0.288.

In turn, `Cc1nc(SC2CC(=O)N(c3cc(Cl)cc(Cl)c3)C2=O)nc2c1CCCC2` (stereo unspecified) displayed a z-score of 0.031. The value for `Cc1ccc(-c2nnc(CSc3nnc(C)s3)o2)cc1` was 0.552; that for `COc1ccc(NC(=O)c2sccc2SCc2cccc(C(F)(F)F)c2)cc1` was -0.392; that for `Cn1c(=O)n(C)c2cc(S(=O)(=O)N3CCCc4ccccc43)ccc21` was -0.0429.

Consider `Cc1ccc(C)c(S(=O)(=O)Nc2ccc3sc(C)nc3c2)c1`, for which the z-score was found to be 0.181. With `O=C(O)c1sccc1SCc1ccc(Cl)c(Cl)c1` the figure was -0.611; with `CCOc1cnc(-c2ccc(OC)cc2)o1`, -0.159. The value for `Cc1cc(C)c2oc(-c3ccc(Cl)c(NC(=O)c4ccc(C#N)cc4F)c3)nc2c1` was -0.14; that for `O=C(OC(c1ccc(NS(=O)(=O)c2ccccc2)cc1)(C(F)(F)F)C(F)(F)F)c1ccccc1` was -0.983; that for `CC1=CC(C)(C)N(S(=O)(=O)c2ccc(C)cc2)c2ccc(C)cc21` was 0.0904. `C=CCN1C(=O)/C(=C/c2ccccc2)S/C1=N/c1nccs1` yielded a z-score of -0.00934. The value for `Cc1ccc(S(=O)(=O)NCCNC(=O)CN2CCCC2)cc1` was 0.319. `O=C(O)c1cc(-c2ccccc2Cl)n[nH]1` yielded a z-score of -0.1.

As for `CSc1nnc(-c2cc3ccccc3cc2O)n1C`, the z-score was found to be 1.39. With `CNS(=O)(=O)c1ccc(Oc2ccc(S(=O)(=O)NC)cc2)cc1` the figure was 0.861. The value for `CC(C)(C)N(NC(=O)Nc1ccc(Cl)c(Cl)c1)C(=O)c1ccccc1` was 1.85; that for `S=C(Nc1ccc(Cl)cc1)N1CCN(C2CCCCC2)CC1` was -0.316; that for `O=C(c1cc2c(=O)oc3ccccc3c2s1)N1CCOCC1` was -0.802. The value for `Cc1nc2nc(-c3cccnc3)nn2c(C)c1Cl` was 0.342; that for `Cc1cccc2[nH]c3c(N4CCC5(CC4)OCCO5)ncnc3c12` was -0.208; that for `COc1ccc(-n2nnc3c(=O)n(Cc4ccccc4C)cnc32)cc1` was -0.283. As for `CCOC(=O)c1cc(NC(=O)C2C3CCC(O3)C2C(=O)O)cc(C(=O)OCC)c1` (stereo unspecified), the z-score is 0.0323. The value for `Cc1ccc(CNC(=O)C2CCN(S(=O)(=O)c3cnc[nH]3)CC2)cc1` was 0.036; that for `O=C(NC(=S)N1CCCc2ccccc21)c1ccc(Br)cc1` was active: 9.56.

For `COc1ccc(Cl)cc1NC(=S)N(CCCN1CCOCC1)Cc1cn(C)c2ccccc12`, the z-score was -0.154.

In the case of `Cc1ccc(NC(=O)CCn2cccc2)cc1`, the z-score is -0.101. The value for `O=C(CN1N=C(c2ccc(Cl)cc2)CCC1=O)NCc1cccnc1` was -0.0556; that for `CCCn1c(-c2ccc(OC)cc2)nc2nc3ccccc3nc21` was -0.363; that for `COc1ccc(NC(=O)C2=C(C)C(=O)OC23CCC(C)CC3)cc1Cl` (stereo unspecified) was 0.29.

As to `Cc1cc(C)cc(SCc2noc(C(=O)NC(C)C)c2C(=O)O)c1`, the z-score was -0.138. The value for `CCOC(=O)N1CCC(NC(=O)c2cc(S(=O)(=O)N3CCc4ccccc43)cn2C)CC1` was -0.277. In turn, `O=C(CN1CCN(Cc2ccccc2Cl)C1=O)NCc1ccco1` returned a z-score of 0.164. The value for `S=C1NCCOCCOCCOCCN1` was -0.259; that for `COc1ccc(C(=O)NC(=S)N2CCCCC2)cc1[N+](=O)[O-]` was 1.25. `COc1ccc(/C=N/NC(=O)c2ccc(COc3ccccc3Cl)o2)cc1`: the z-score is -0.279.
